# The supplement of paper PMC3334620
# The full ranking holds about 33,000 sequences; the median of “E-score (-0.5 to 0.5)” is about -0.043, and the highest 2% start at about 0.37. Some of the results follow.
# Biological target: T1, Upc2 (UniProt Q12151)
# T1 sequence: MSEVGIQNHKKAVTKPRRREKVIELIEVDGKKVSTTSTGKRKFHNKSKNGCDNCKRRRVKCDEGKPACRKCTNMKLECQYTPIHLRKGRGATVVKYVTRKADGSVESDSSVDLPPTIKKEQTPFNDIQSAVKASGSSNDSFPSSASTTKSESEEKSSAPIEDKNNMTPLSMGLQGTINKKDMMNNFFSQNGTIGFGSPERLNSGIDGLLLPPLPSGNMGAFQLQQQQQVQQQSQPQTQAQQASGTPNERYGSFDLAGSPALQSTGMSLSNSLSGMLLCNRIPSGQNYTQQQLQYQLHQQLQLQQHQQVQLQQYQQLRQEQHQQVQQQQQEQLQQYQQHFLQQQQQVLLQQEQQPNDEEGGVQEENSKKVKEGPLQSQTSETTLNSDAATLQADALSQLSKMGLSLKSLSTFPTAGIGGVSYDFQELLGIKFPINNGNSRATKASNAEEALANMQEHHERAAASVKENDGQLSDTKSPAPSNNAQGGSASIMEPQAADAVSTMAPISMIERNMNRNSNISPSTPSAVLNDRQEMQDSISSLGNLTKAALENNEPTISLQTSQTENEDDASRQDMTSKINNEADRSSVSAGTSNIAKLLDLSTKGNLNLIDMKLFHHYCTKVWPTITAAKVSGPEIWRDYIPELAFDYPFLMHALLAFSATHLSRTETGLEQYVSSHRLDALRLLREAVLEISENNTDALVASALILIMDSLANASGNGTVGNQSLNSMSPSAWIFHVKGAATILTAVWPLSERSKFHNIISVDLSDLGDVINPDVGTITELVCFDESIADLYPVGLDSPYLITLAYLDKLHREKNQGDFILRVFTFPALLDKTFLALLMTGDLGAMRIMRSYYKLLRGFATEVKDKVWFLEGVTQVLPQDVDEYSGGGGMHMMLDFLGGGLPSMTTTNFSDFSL
# Experiment: PBM E-score (8-mer binding enrichment) (E-score (-0.5 to 0.5)); higher = stronger / more preferred TF binding; most listed sequences are background and not binding sites
# Settings: protein concentration: 200 nM; construct: GST-full length
# Procedure, shortened: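 E-scores (a modified Wilcoxon-Mann-Whitney statistic) were assigned by the Universal PBM Analysis Suite to every ungapped eight-base word pooled with its reverse complement. The input came from universal all-10-mer Agilent arrays made double-stranded by primer extension and probed with GST-tagged yeast transcription factors at about 100-200 nM. Fluorescent anti-GST detected bound protein, and masliner normalised the scans.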
row,Sequence,PBM E-score
1,AGCTATGG,-0.158
2,CTGGTGCC,-0.116
3,CAACCTAA,-0.0826
4,GAAAGGCA,-0.271
5,GGAGTGGA,-0.165
6,ACGGCGAA,0.254
7,ATCTGTAC,0.271
8,CATGAAAC,0.0651
9,TACGTCCA,0.117
10,CCCTGGTA,-0.129
11,GTCGACGA,0.0537
12,AGTGATCG,0.122
13,ATGAACGG,0.261
14,CTAGCGTC,-0.0808
15,ACTGTATA,0.15
16,AGGATCAC,-0.133
17,CCCTCAAG,-0.199
18,CTGACGTA,0.164
19,CTCGGTGA,-0.0184
20,CAAAGAAC,-0.0158
21,ACCTCAAC,0.0128
22,CCATCAGA,-0.0736

row,Sequence,PBM E-score
1,GTATAGAA,0.345
2,GCGCAGAC,0.0613
3,CTCCCGAC,0.0661
4,AAGGCTTC,-0.219
5,ACGCGATG,0.0853
6,CCAGAAGA,-0.179
7,CCTTTCAA,-0.0604
8,CCTACAAG,-0.0492
9,GAGAGATA,-0.0189
10,ATGATAGA,-0.0594
11,CGACTCTA,0.0472
12,CCCTGACC,-0.0503
13,CACCACAG,-0.225
14,ACCAAACA,0.208
15,ACAGCCCC,-0.0371
16,CAGAAATG,-0.163
17,GGGTGAGA,-0.369
18,CGGTTCAG,0.0368
19,ACTCCCAA,-0.165
20,CTCGAAAG,0.0537
21,CGTTCTAG,0.248
22,CTAGACAG,-0.209

row,Sequence,PBM E-score
1,ACTAGTAC,-0.0146
2,CAATGACA,-0.196
3,CTACAGCA,-0.168
4,GAGACCAA,-0.0848
5,AATTAAGA,-0.0906
6,GATCTTCA,-0.108
7,GCCTTTTA,0.141
8,ACTAAAAA,0.0796
9,ACGATGAG,0.257
10,GTGTGCAA,0.0917
11,GAGACATA,0.022
12,CGATCACA,0.0286
13,CCCTAATA,-0.235
14,GCTGTTGA,-0.152
15,GCATTCAA,0.0027
16,CATAAGTA,-0.0927
17,CGCCTGAG,-0.255
18,GAAATAAA,0.127
19,CGACCGCG,0.168
20,ACACACCT,0.0105
21,AATGGTAA,0.0673
22,CAAACTGA,-0.118

row,Sequence,PBM E-score
1,CCACCCCA,-0.202
2,CGGACGCA,0.0166
3,ATATTACG,0.254
4,CGCCTCGC,0.131
5,CGCCCGTA,0.317
6,ACCACGAG,0.0246
7,AGCTTGTC,-0.0906
8,AATGATCG,0.2
9,ATTTATAG,-0.0756
10,ATGGGACA,-0.24
11,GCACGGCC,-0.272
12,ACTATGAT,-0.199
13,ACATTAGC,0.168
14,CATTAGAA,0.112
15,ACTTACTC,-0.303
16,CAGGACAG,-0.0912
17,ATCAAATC,-0.078
18,AATTGAGA,0.0759
19,CCGATTAC,0.0565
20,GAGGCCAA,0.0795
